Experimental findings from the RNAGym collection of RNA variant scans (doi:10.1073/pnas.2313332121) are described below.

Variants at the background level are over-represented here.

B1: TPR 5TU (parent)
chain: GGAUCUUCUCGAUCUAACAAAAAAGACAAAUCUGCCACAAAGCUUGAGAGCAUCUUCGGAUGCAGAGGCGGCAGCCUUCGGUGGCGCGAUAGCGCCAACGUUCUCAACUAUGACACGCAAAACGCGUGCUCCGUUGAAUGGAGUUUAUCAUG

In the data set the parent is B1. The data set can be described thus: polymerase ribozyme fitness, log enrichment relative to wild type (log ratio); higher = more active; in vitro selection for triplet polymerase activity. Put shortly: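 Genotype fitness is the logarithm of its enrichment divided by wild-type enrichment, using inverse-variance-weighted averages of replicates. That logarithm is base 2. Enrichment was measured by Illumina sequencing of input and output libraries from one triplicate in vitro selection round, with frozen incubation at −7 °C, on PCR-built, transcribed mutant libraries of each subunit of a heterodimeric triplet polymerase ribozyme, retaining genotypes with ≥10 input reads and ≥1 read per output.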
Regarding A3G C57G A106G U109C, the “polymerase ribozyme fitness (log ratio)” value is at most -4.2. As to A3G A12C A39G A97U G133A G143C, the “polymerase ribozyme fitness (log ratio)” value is at most -4.2. Regarding A3G A30G C38A G83A U101G, the “polymerase ribozyme fitness (log ratio)” value is at most -4.2. In the case of A3G A16C C32G G84A G141A, the “polymerase ribozyme fitness (log ratio)” value is at most -4.2. On to A3U A26U C38U C87A C96U C123U, for which the “polymerase ribozyme fitness (log ratio)” value is at most -4.2.

Regarding A3G C5U A19U A39G A107U C131U U148C, the “polymerase ribozyme fitness (log ratio)” value was at most -4.2. Turning to A3U C18U A20C A30C A41C C69U G94A C103G, the “polymerase ribozyme fitness (log ratio)” value was at most -4.2.

As to A3U U6G C35G G50U U78G C79U G141U, the “polymerase ribozyme fitness (log ratio)” value is at most -4.2. Consider A3C C8A A29C A52C C54A C93A C96G C108A U134C, for which the “polymerase ribozyme fitness (log ratio)” value was at most -4.2. In the case of A3G A41C G42C G58A C85A U148A, the “polymerase ribozyme fitness (log ratio)” value is at most -4.2. A3U A64G G83A C93A A142C G143A U144G: the “polymerase ribozyme fitness (log ratio)” value was at most -4.2. With A3C C93U C96A A106U C108A C114G G141U U146G U151C, the “polymerase ribozyme fitness (log ratio)” value was at most -4.2.

On to A3G C8U G25C U45G U55G G81C C95U C114U G117U A120G A122G, for which the “polymerase ribozyme fitness (log ratio)” value is at most -4.2. Then A3G G71U C96A A107G C116U C125G, with at most -4.2. To A3U A12G C43U C54U G71U C79A A120C belongs at most -4.2; to A3G C10G G34A G83A C105U C129G G143C, at most -4.2. As for A3G C35A C72G A73U U77G G92A G133C U148C, the “polymerase ribozyme fitness (log ratio)” value was at most -4.2. As for A3C U31A G42C C76U C103G G133C U134A, the “polymerase ribozyme fitness (log ratio)” value is at most -4.2.

For A3G U56A C72U A91U C132A, the “polymerase ribozyme fitness (log ratio)” value was at most -4.2.

Turning to A3G A64G C85G G88C A107G, the “polymerase ribozyme fitness (log ratio)” value was at most -4.2.

Take A3G C8G A21U A66C G92C: the “polymerase ribozyme fitness (log ratio)” value is at most -4.2. To A3G A30U A41G A91U A110C G124A U139G U146C belongs at most -4.2; to A3C U6G C57U G74C C149U, at most -4.2. In the case of A3G G59A U77C C95U U139G, the “polymerase ribozyme fitness (log ratio)” value was at most -4.2. Consider A3U A12G C43U C51G U53A U56A U82G G83A C93A C96G A98U, for which the “polymerase ribozyme fitness (log ratio)” value is at most -4.2. Regarding A3U A23G A37C U61G A73U C103A, the “polymerase ribozyme fitness (log ratio)” value is at most -4.2. For A3U A29U U31A C36G G68U G84U G117C, the “polymerase ribozyme fitness (log ratio)” value is at most -4.2.

A3G A21C U78G U90G C131U G141C: the “polymerase ribozyme fitness (log ratio)” value was at most -4.2. To A3C G59A C85G C99U A120G belongs at most -4.2; to A3U C51A G124C, -2.87; to A3C C51G U55G C75U C118A, at most -4.2. Take A3U A49G: the “polymerase ribozyme fitness (log ratio)” value was -0.232.

Regarding A3U C43G C85U C99U A120C G128U A147U, the “polymerase ribozyme fitness (log ratio)” value is at most -4.2. For A3C U56A C69A C93U G126A U139G, the “polymerase ribozyme fitness (log ratio)” value was -2.53.

Consider A3U C35G C57A A64C G86U C116G G143A, for which the “polymerase ribozyme fitness (log ratio)” value was at most -4.2. Consider A3U G11A C14G U53C C76G G117U, for which the “polymerase ribozyme fitness (log ratio)” value was at most -4.2. Turning to A3U A23C, the “polymerase ribozyme fitness (log ratio)” value is -3.76. In the case of A3C U6G A22C A29C C85G C93U C108G G143A, the “polymerase ribozyme fitness (log ratio)” value was at most -4.2. With A3G A12G A29G C38U G42C G86U A138C, the “polymerase ribozyme fitness (log ratio)” value is at most -4.2.

Regarding A3U A26U U82A C129G G136A, the “polymerase ribozyme fitness (log ratio)” value is at most -4.2. Regarding A3G A16U A39G C75U C96A G143C, the “polymerase ribozyme fitness (log ratio)” value is at most -4.2.

For the variant A3U A12C A29G A52C A73G C87U A97U, the “polymerase ribozyme fitness (log ratio)” value is at most -4.2. To A3C U4C A19C G25C C75U C96G A107G C123U G128U U148A belongs at most -4.2; to A3G A137U U146G, at most -4.2; to A3U C38U U53C C57A C95G C125A U134A, at most -4.2. To A3U A12U A16C A52U A91C C93U C95U G143A belongs at most -4.2; to A3C C14G C35U C38U G74U C129U A142C, at most -4.2; to A3G G59U C69U A91C A97G, at most -4.2.

As for A3U G133U U135G, the “polymerase ribozyme fitness (log ratio)” value was at most -4.2. As to A3U C35A C43A A52G G88A C108G, the “polymerase ribozyme fitness (log ratio)” value is at most -4.2. Then A3U A16C A60G C87A U102G C108G U127A U145G, with at most -4.2; and A3U C32G A49U, with at most -4.2; and A3G A91C C103G C108U, with at most -4.2.

On to A3C C36G A60C G83U C118G U151C, for which the “polymerase ribozyme fitness (log ratio)” value was at most -4.2.

In the case of A3U G70C G83A A107G A115U A122G, the “polymerase ribozyme fitness (log ratio)” value is at most -4.2. To A3U A22U A49U C87U A91U belongs at most -4.2; to A3C U13C A52G C75G U82A G84U G92A C93G C114U, at most -4.2; to A3U C99U, -0.307.

As for A3U C5G C18U U31A C76U G94U, the “polymerase ribozyme fitness (log ratio)” value is -1.46. A3U A16C C27U A47U C99G C105U A119G U144C: the “polymerase ribozyme fitness (log ratio)” value was at most -4.2. Turning to A3U C8U U45G G58A G62U C63G C87A A120U, the “polymerase ribozyme fitness (log ratio)” value is at most -4.2. Turning to A3G C8G A39U, the “polymerase ribozyme fitness (log ratio)” value is at most -4.2.

A3C U6A A26C C57U U78G U111G U146C: the “polymerase ribozyme fitness (log ratio)” value is at most -4.2. With A3C C14A A26G G50C A91G G117A C125U G140A G143C, the “polymerase ribozyme fitness (log ratio)” value is at most -4.2. For the variant A3U C14U A40U A52U G84A G112C, the “polymerase ribozyme fitness (log ratio)” value was at most -4.2. As to A3U C38U U45C G92A U102A C108G C125A U134C, the “polymerase ribozyme fitness (log ratio)” value is at most -4.2.

In the case of A3U A23G C38U U56A G58U C87G C118A, the “polymerase ribozyme fitness (log ratio)” value was at most -4.2. On to A3U G68A, for which the “polymerase ribozyme fitness (log ratio)” value is at most -4.2.

As to A3U A39C C76G C93U A142C C149U, the “polymerase ribozyme fitness (log ratio)” value is at most -4.2. Consider A3U C35A G68A G92A A97C C118U, for which the “polymerase ribozyme fitness (log ratio)” value was at most -4.2. Take A3C U4A G71U G88A: the “polymerase ribozyme fitness (log ratio)” value is at most -4.2. To A3U G81C belongs -0.0386; to A3U G48C U61A A97U U135A, at most -4.2; to A3U C5U A24G C27A A29C A52C G84A U104G U127A, at most -4.2. Regarding A3C U7G C14U A19G A26G A49C C87G A137G U144G, the “polymerase ribozyme fitness (log ratio)” value is at most -4.2. For the variant A3C U90A, the “polymerase ribozyme fitness (log ratio)” value was -4.17. Consider A3U A52C G80A G83A C93G, for which the “polymerase ribozyme fitness (log ratio)” value is at most -4.2.

Regarding A3U A28U G50C U56A G68A C96U G136U U139G, the “polymerase ribozyme fitness (log ratio)” value is at most -4.2. In the case of A3G U9G C36A G67A G68C A73G U135G, the “polymerase ribozyme fitness (log ratio)” value was at most -4.2. As to A3U A21C G62C C63U A73U C79U G84A C93G A106U U145G, the “polymerase ribozyme fitness (log ratio)” value is at most -4.2. Turning to A3G A20U C27G G42A U56A U77G G86A G117U G133C, the “polymerase ribozyme fitness (log ratio)” value was at most -4.2.

Regarding A3C C27G C93U G133C, the “polymerase ribozyme fitness (log ratio)” value was at most -4.2. Regarding A3C A121U, the “polymerase ribozyme fitness (log ratio)” value came out at 0.339.
